# Laboratory results taken from PubChem BioAssay AID2675 (National Center for Advancing Translational Sciences (NCATS), 2010).
# The whole screen tested about 280,000 compounds, of which about 100 (0.036%) were called active. This list was built around the results that the source calls inconclusive (neither active nor inactive); the mix of calls is not that of the screen. Calls come from the whole dose curve; as a rule, active = well fitted inhibition curve with a large enough effect in the signal ratio, with a control signal flat (not every such curve was filed as active); inconclusive = small, poorly fitted or top-dose-only effect, or effect the other way, or a change in a side signal; inactive = no such curve, though single readings can be large or run the other way; the % refers to the signal ratio. Potencies beside an inconclusive call are fits to weak or partial responses and may not hold up. A note “side channel” means that the fit belongs to a control or component signal, not to the main read-out.
# Target: Muscleblind-like protein 1 (Homo sapiens) (UniProt Q9NR56)
# Test: qHTS Assay for Inhibitors of MBNL1-poly(CUG) RNA binding
# Details: TR-FRET MBNL1-His/biotin-(CUG)12 binding, 665/545 ratio; series mostly up to 57.5 µM
# In short: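 Compounds (final 92 nM to 58 uM) are added to His-tagged MBNL1 and biotin-(CUG)12, then terbium anti-His antibody and streptavidin-XL665 (5 nM final). After 60 min at room temperature, the 665/545 nm ratio is read.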
# Potency is the fitted concentration of half-maximal effect; tags give direction and shape of the fitted curve or compound fluorescence and quenching.
# Sequence of UniProt Q9NR56 (Q9NR56 whole entry, looked up): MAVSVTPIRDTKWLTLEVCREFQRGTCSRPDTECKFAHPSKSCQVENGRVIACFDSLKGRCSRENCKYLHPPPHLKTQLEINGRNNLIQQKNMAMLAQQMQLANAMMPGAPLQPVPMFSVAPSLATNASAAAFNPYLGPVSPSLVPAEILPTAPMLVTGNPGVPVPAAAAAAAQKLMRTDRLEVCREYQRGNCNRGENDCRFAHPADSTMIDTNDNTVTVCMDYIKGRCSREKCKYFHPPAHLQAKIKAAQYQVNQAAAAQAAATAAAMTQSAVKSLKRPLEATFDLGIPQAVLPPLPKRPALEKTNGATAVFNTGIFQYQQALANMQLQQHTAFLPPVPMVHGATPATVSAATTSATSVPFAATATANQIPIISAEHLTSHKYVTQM
row,SMILES,Potency
1,COc1ccccc1CN=C1NC(=O)C(CC(=O)Nc2ccc(C(C)=O)cc2)S1 (stereo not given),inactive
2,Nc1nccc(/C=C/c2c(F)cccc2Cl)n1,"inconclusive: 25.1 µM [quencher, single point]"
3,CC(=O)c1c(C)nc(-c2cccc([N+](=O)[O-])c2)n1O,"inconclusive: 28.2 µM [quencher, single point]"
4,COc1cccc(C2C(C(=O)c3cccs3)=C(O)C(=O)N2c2cc(C)on2)c1 (stereo not given),"inconclusive: 31.6 µM [quencher, side channel, single point]"
5,O=C(CCN1C(=O)c2ccncc2C1=O)Nc1ccc2c(c1)OCCO2,"inconclusive: 14.1 µM [quencher, side channel, partial curve]"
6,C/C(=N\NC(=S)NC1CCCCC1)c1ccc(Cl)c(Cl)c1,inactive
7,CC(C)C(=O)Nc1cccc(NC(=O)c2ccc([N+](=O)[O-])cc2Cl)c1,"inconclusive: 35.5 µM [quencher, side channel, partial curve]"
8,O=[N+]([O-])c1ccc(/C=N/n2cnc3ccccc32)s1,"inconclusive: 3.98 µM [quencher, side channel, partial curve]"
9,CCOC(=O)c1sc2c(c1C)C(c1cccs1)C1=C(CCCC1=O)N2 (stereo not given),inactive
10,CCN(Cc1ccccc1)C(c1cc2ccc(C)cc2[nH]c1=O)c1nnnn1CCOC (stereo not given),"inconclusive: 39.8 µM [quencher, side channel, single point]"
11,CC1(OC(=O)C2CCCC2)C(=O)C=C2C=C(c3ccsc3)N(Cc3ccc4c(c3)OCO4)C=C2C1=O (stereo not given),"inconclusive: 31.6 µM [quencher, side channel, single point]"
12,COc1ccc(OC)c(C2C(C(=O)N(C)C)=C(C)Nc3nc4ccccc4n32)c1 (stereo not given),inactive
13,COc1cccc(OCC(O)CNC(=O)c2oc3c(C)c(C)ccc3c2C)c1 (stereo not given),inactive
14,CCOC(=O)Cc1c(C)nc2c(-c3cccc(Br)c3)c[nH]n2c1=O,inactive
15,COc1cc(OC)c(OC)cc1CNC(=O)CCN1C(=O)c2cccc([N+](=O)[O-])c2C1=O,"inconclusive: 7.08 µM [quencher, side channel, partial curve]"
16,O=C(Cc1ccc(F)cc1)N1CCN=C1SCc1cccc([N+](=O)[O-])c1,"inconclusive: 31.6 µM [quencher, side channel, single point]"
17,CC(C)CC(COCc1ccc([N+](=O)[O-])cc1)N1CCN(C(=O)c2ccc(C(F)(F)F)cc2)CCC1=O (stereo not given),"inconclusive: 20 µM [quencher, side channel, single point]"
18,N#C/C(=C\c1ccc[nH]1)S(=O)(=O)c1ccccc1,"inconclusive: 14.1 µM [quencher, side channel, partial curve]"
19,CCC(C)(C)NC(=O)C(c1ccccn1)N(C(=O)c1csnn1)C1CCCCC1 (stereo not given),"inconclusive: 7.94 µM [inhibitor, single point]"
20,Cc1[nH]n(-c2ccccc2)c(=O)c1/C=N/Nc1nncc(-c2ccccc2)n1,"inconclusive: 10 µM [quencher, side channel, partial curve]"

row,SMILES,Potency
1,CCn1c(CCCNC(=O)c2ccc(F)cc2)nc2ccccc21,"inconclusive: 31.6 µM [quencher, side channel, single point]"
2,O=C(N/C(=C/c1cccc([N+](=O)[O-])c1)C(=O)N1CCCCCC1)c1ccco1,"inconclusive: 15.8 µM [quencher, side channel, partial curve]"
3,Cc1n[nH]c(=O)c2c(NC(=O)CSc3nc4ccccc4c(=O)n3C(C)C)oc(C)c12,"inconclusive: 17.8 µM [quencher, side channel, partial curve]"
4,COC(=O)CSc1ccc2c(N)c(C(=O)OC)sc2c1,"inconclusive: 15.8 µM [quencher, side channel, partial curve]"
5,CCOC(=O)C1CCCN(CC(O)COC(c2ccccc2)c2ccccc2)C1 (stereo not given),inactive
6,CCCN(CC1CC1)C(=O)COC(=O)c1ccc2c(c1)C(=O)N(c1ccc(OCC)cc1)C2=O,"inconclusive: 3.16 µM [quencher, side channel, full curve]"
7,O=C(CN1CCN(Cc2ccccc2)CC1)c1c[nH]c2ccccc12,inactive
8,COc1ccc2c(-c3ccccc3)cc(SC(C)C(N)=O)nc2c1 (stereo not given),"inconclusive: 31.6 µM [fluorescent, side channel, single point]"
9,O=C1c2cccc3cccc(c23)C(=O)N1CCN1CCN(C(=S)Nc2ccc(Cl)cc2)CC1,"inconclusive: 0.0891 µM [fluorescent, side channel, full curve, poor fit]"
10,N/C(=N\OC(=O)C1CCCCC1)c1cccc([N+](=O)[O-])c1,"inconclusive: 14.1 µM [quencher, side channel, partial curve]"
11,CCc1nc(N2CCCC2)c(C#N)c2c1CCCC2,inactive
12,Cc1cc(C)n(CC(=O)O)n1,inactive
13,O=c1oc(-c2ccccc2)nc2c1C1(CCCCC1)Cc1ccccc1-2,inactive
14,COC(=O)CCCN1C(=O)c2cccc3cccc(c23)C1=O,"inconclusive: 11.2 µM [quencher, side channel, partial curve]"
15,CCOc1ccc(C2NC(=O)C(C#N)=C(S)N2c2cccc(C)c2)cc1OC (stereo not given),inactive
16,COc1ccc(NC(=O)CSc2nncn2C)c([N+](=O)[O-])c1,"inconclusive: 14.1 µM [quencher, side channel, partial curve]"
17,CCOC(=O)CN=C1CC(C)(C)CC2=C1Sc1ncnc(N(C)C)c1N2,"inconclusive: 28.2 µM [quencher, side channel, single point]"
18,CCCN1CCC(CCOc2ccccc2)(C(=O)OCC)CC1,inactive
19,CS(=O)(=O)N1CCC(C(=O)Nc2cccc([N+](=O)[O-])c2)CC1,"inconclusive: 14.1 µM [quencher, side channel, partial curve]"
20,Cc1ccc(C2C3CN(C(C)C)CC=C3C(C#N)=C(N)C2(C#N)C#N)cc1 (stereo not given),"inconclusive: 28.2 µM [quencher, side channel, partial curve]"
